Results from article PMC4336329 (PLoS ONE, 2015).
Screen size: about 310,000 compounds; about 14,000 (4.5%) showed an effect of 50% or more. The effect is printed as a negative number. The list shows a part of the results.

target: human ether-à-go-go-related gene (hERG) potassium channel (human, UniProt Q12809); test: primary screen, population patch clamp on CHO cells stably expressing hERG
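Note: peak tail current of the secondary pulse compared with the same well before compound.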

Chain of human ether-à-go-go-related gene (hERG) potassium channel (Q12809 whole entry, looked up): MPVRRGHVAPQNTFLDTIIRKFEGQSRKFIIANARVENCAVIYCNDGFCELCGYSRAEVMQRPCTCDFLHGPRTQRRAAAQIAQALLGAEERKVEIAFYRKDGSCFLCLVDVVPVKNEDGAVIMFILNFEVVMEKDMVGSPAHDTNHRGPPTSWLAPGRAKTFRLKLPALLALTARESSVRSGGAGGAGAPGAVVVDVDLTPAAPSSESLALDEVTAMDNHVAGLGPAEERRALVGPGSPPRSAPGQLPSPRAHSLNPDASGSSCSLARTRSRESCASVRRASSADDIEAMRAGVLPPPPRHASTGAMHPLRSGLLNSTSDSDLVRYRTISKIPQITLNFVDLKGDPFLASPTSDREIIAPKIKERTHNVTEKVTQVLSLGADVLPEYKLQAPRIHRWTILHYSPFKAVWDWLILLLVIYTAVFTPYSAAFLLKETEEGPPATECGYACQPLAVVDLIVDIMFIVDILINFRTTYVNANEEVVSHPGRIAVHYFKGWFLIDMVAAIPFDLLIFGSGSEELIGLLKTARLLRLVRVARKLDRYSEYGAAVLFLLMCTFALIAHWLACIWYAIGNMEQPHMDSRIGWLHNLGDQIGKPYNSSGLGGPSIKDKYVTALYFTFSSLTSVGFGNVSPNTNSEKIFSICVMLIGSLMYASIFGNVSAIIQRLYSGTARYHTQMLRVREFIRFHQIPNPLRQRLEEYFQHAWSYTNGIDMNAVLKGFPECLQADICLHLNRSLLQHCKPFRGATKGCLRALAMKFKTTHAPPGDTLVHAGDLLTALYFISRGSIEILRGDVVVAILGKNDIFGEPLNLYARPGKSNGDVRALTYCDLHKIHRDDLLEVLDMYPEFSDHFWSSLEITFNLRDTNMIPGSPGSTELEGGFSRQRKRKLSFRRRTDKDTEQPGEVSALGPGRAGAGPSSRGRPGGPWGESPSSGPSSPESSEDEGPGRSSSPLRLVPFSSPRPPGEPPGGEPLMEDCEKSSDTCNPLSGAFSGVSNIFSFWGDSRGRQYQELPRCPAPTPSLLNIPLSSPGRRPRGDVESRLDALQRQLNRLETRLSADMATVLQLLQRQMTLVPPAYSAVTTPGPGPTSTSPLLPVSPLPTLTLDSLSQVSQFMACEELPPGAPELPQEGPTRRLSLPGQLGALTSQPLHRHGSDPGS

Point of comparison: CN(Cc1cn(C)nc1-c1ccccc1F)CC1CCCCO1 (stereo not drawn), “hERG current change (%, negative = inhibition) at 10uM” value -2.75%. Against it:
- CN(C)S(=O)(=O)c1cccc(NC(=O)c2ccc3c(c2)OCCO3)c1 — higher, 5.56%
- CO/N=C/NC(=O)NOCc1ncc(C(F)(F)F)cc1Cl — higher, 0.271%
- COc1ccc(N2CCN(CCCNC(=O)CN3C(=O)COc4ccccc43)CC2)cc1 — lower, -35.2%
- COc1ccccc1/C=N/NC(=O)c1ccc(N(C)S(=O)(=O)c2ccccc2)cc1 — lower, -4.39%
- O=C(CN(CCc1ccccc1)C(=O)c1csnn1)NC1CCCC1 — lower, -4.71%
- C/C(=N\O)C(=O)NCc1ccncc1 — higher, 13%
- CCOC(=O)C(Cc1ccccc1)C(=O)c1ccco1 (stereo not drawn) — higher, 8.4%
- COc1ccc(C(=O)Nc2nnc(-c3ccccc3)o2)cc1OC — higher, 2.94%
- COCC(=O)N1CCC(Oc2ccc(C(=O)N3CCCCCC3)cc2)CC1 — higher, 12.1%
- CC(C)c1ccc(NC(=O)C2CCC(CNC(=O)[C@@H]3Cc4ccccc4CN3)CC2)cc1 (stereo partly drawn) — higher, 9.65%
- N#Cc1ccccc1NC(=O)CN1CCOCC1 — higher, 13.4%
- COc1ccc(NC(=O)Nc2ccc3c(c2)CCC3)cc1OC — higher, 19.9%
- C=CCN1C(=O)C(Cc2ccccc2)SC1=Nc1ccc(C(=O)O)cc1 (stereo not drawn) — lower, -3.37%
- O=C(CCSc1nnc(-c2ccccc2)o1)N1CCOCC1 — lower, -5.66%
- CC(C)NC(=O)c1cc(=O)n(C)c(=O)n1C — higher, 12.7%
- O=C(Nc1nc2ccccc2[nH]1)c1ccc(Cl)c([N+](=O)[O-])c1 — higher, 0.857%
- COc1ccc(CNC(=O)C2CC(c3cccc(OC)c3)=NO2)cc1 (stereo not drawn) — lower, -12.2%
- Clc1ccc(OCCSc2ncccn2)c(Br)c1 — higher, 24.1%
- CCOP(=O)(OCC)C(O)c1ccc(OC)c(OC)c1 (stereo not drawn) — higher, 15.6%
- COc1cc2c(cc1OC)CN(C(=O)CSc1n[nH]c(N)n1)CC2 — higher, 8.23%
- CC(/C=N/n1c(-c2cc(C)[nH]n2)n[nH]c1=S)=C\c1ccccc1 — higher, 14.7%
- CCOC(=O)C(NC(=O)CC)(Nc1ccc(C(O)(C(=O)OCC)C(F)(F)F)cc1C)C(F)(F)F (stereo not drawn) — higher, -2.45%
- Cc1cccc(CN2CCCC(C(=O)N3CCCCC3)C2)c1.O=C(O)C(=O)O (stereo not drawn) — higher, 15.5%
- COC(=O)COc1ccc(S(=O)(=O)NCc2ccco2)cc1 — higher, 8.99%
- CCN(CC)S(=O)(=O)c1ccc(-c2nnc(SCC(=O)N3c4ccccc4CC3C)n2CC)cc1 (stereo not drawn) — higher, 12.2%
- Cc1cccc(OCCCN2CCOCC2)c1C — higher, 11.2%
- Cc1cc(NC(=O)CCC(=O)N(C2CC2)C2(C(=O)NC3CCCC3)CCC(C)CC2)no1 (stereo not drawn) — lower, -3.43%
- O=C(NC1CCCCC1)C(c1ccc(F)cc1)N(C(=O)c1csnn1)C1CC1 (stereo not drawn) — higher, 13.2%
- Cc1c(NC(=S)N2CCN(c3ccc(F)cc3)CC2)c(=O)n(-c2ccccc2)n1C — higher, 2.39%
- O=C(CN1C(=O)NC2(CCCCCCC2)C1=O)NC1CCCc2ccccc21 (stereo not drawn) — higher, 3.29%
- O=[N+]([O-])c1cccnc1N1CCC(c2cc(-c3cccc(C(F)(F)F)c3)n[nH]2)CC1 — lower, -13.7%
- CN1C(=O)C(C)(C)c2cc(S(=O)(=O)NCC3CCC(C(=O)NCc4ccccc4)CC3)ccc21 (stereo not drawn) — higher, 18.5%
- Cc1cc(NC(=O)CSCC(=O)OCC(=O)Nc2ccc(OC(F)F)cc2)no1 — lower, -6.01%
- COc1ccccc1/C=C/C(=O)NC(=S)Nc1ccc(S(=O)(=O)N(C)c2ccccc2)cc1 — higher, 11.6%
- CNc1cc(C)nc(-n2nc(C)cc2C)n1 — lower, -10.3%
- COC(=O)CN1C(=O)COc2ccc(S(=O)(=O)NCc3ccccc3)cc21 — higher, 1.23%
- O=C(C[n+]1cn(C(F)F)c2ccccc21)c1ccc(OC(F)F)cc1.[Br-] — lower, -74.9%
- COc1ccccc1NC(=O)c1cc[n+](C)cc1.[I-] — higher, 18.4%
- COc1ccc(Nc2cc(C)nc3nc(C)nn23)c(OC)c1 — lower, -4.34%
- Cc1cnc(-n2c(=S)[nH]c3ccccc3c2=O)s1 — higher, -1.3%
- Cc1sc(NC(=O)COc2cccc(-n3cnnn3)c2)c(C#N)c1C — higher, -0.605%
- Cc1ccc2[nH]c(C(F)(F)F)cc(=O)c2c1 — higher, 15.4%
- O=C(NCC(c1ccc(F)cc1)N1CCOCC1)c1cccnc1Sc1ccc(Cl)cc1 (stereo not drawn) — lower, -34.5%
- COc1ccc(-c2nnc3n(CCc4ccccc4)c(=O)c4ccccc4n23)cc1OC — lower, -20.6%
- CCn1cc(/C=N\NC(=O)C2(C)CC2(Cl)Cl)c(C)n1 (stereo not drawn) — higher, 10%
- O=C(Nc1nnc(-c2ccncc2)s1)Nc1ccccc1F — higher, 14.2%
- CC1Cc2cc(/C=C3/SC(=S)N(C)C3=O)ccc2O1 (stereo not drawn) — higher, 17.6%
- O=C(O)C/C(=C\c1ccc2c(c1)OCO2)c1nc2ccccc2s1 — higher, 3.82%
- CCOC(=O)c1cnn(CCOC(=O)Cc2cccs2)c1NC(=O)Cc1cccs1 — lower, -17.6%
- CCCNC(=O)C(Cc1cccc(C#N)c1)NC(=O)c1ccc(C#N)cc1 (stereo not drawn) — lower, -55.9%
- CCOc1cc(N2CCOCC2)c(OCC)cc1NC(=O)COC(=O)CCOc1ccc(C)cc1 — lower, -3.51%
- CC(C(=O)Nc1ccc(F)c(F)c1)N1CCN(C)CC1.O=C(O)C(=O)O (stereo not drawn) — higher, 2.42%
- COc1ccccc1C(=O)NCc1nnc(SC(C)C(=O)Nc2nccs2)n1C (stereo not drawn) — higher, 4.08%
- CCc1ccccc1NC(=O)C1CC(c2ccc(OC)cc2)=NO1 (stereo not drawn) — higher, 5.19%
- CC(C)(C)OC(=O)C1C(=O)CC(C)(O)C(C(=O)OC(C)(C)C)C1c1cccnc1 (stereo not drawn) — higher, 15.3%
- C[C@H](NC(=O)C1CC(=O)N(c2ccc3c(c2)OCO3)C1)C(=O)NC1CCCCC1 (stereo partly drawn) — lower, -13.2%
